Results on one molecule are retold here after publication PMC4661828.

Assay [1] concerns the target T1, FLAG-tagged STAY-GREEN LIKE (SGRL-FLAG) (Arabidopsis thaliana) (UniProt Q94AQ9).
T1 sequence: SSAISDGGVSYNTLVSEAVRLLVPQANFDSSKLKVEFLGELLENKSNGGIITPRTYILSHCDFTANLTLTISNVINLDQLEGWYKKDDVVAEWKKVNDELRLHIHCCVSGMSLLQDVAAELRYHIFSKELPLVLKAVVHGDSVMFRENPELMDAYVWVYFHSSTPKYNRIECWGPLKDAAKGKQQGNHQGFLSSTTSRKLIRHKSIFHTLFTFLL
The assay can be described thus: co-IP; total protein extracts of 35S:FLAG-COP10, 35S:HA-GI and 35S:SGRL-FLAG transgenic seedlings grown in SD, treated with MG132; FLAG-M2 magnetic beads; immunoblot with anti-HA.

For assay [2], the target named is T2, FLAG-COP10 (35S:FLAG-COP10 transgenic plants) (Arabidopsis thaliana) (UniProt Q9LJD7).
T2 sequence: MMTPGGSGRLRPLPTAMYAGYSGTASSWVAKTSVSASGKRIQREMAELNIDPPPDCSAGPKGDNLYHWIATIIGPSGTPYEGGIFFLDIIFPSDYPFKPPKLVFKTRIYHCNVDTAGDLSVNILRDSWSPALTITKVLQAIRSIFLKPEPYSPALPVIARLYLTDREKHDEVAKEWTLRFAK
The description is as above.

These are yes or no findings as the source states them, for the method shown. In cells and extracts the contact can be indirect. Some binding calls cover weakened binding; strength is not graded here. Where a sequence is shown, tags or fusion partners need not be part of it.

B1: HA-GI (35S:HA-GI transgenic plants) (protein, UniProt Q9SQI2 1-1173)
chain: MASSSSSERWIDGLQFSSLLWPPPRDPQQHKDQVVAYVEYFGQFTSEQFPDDIAELVRHQYPSTEKRLLDDVLAMFVLHHPEHGHAVILPIISCLIDGSLVYSKEAHPFASFISLVCPSSENDYSEQWALACGEILRILTHYNRPIYKTEQQNGDTERNCLSKATTSGSPTSEPKAGSPTQHERKPLRPLSPWISDILLAAPLGIRSDYFRWCSGVMGKYAAGELKPPTIASRGSGKHPQLMPSTPRWAVANGAGVILSVCDDEVARYETATLTAVAVPALLLPPPTTSLDEHLVAGLPALEPYARLFHRYYAIATPSATQRLLLGLLEAPPSWAPDALDAAVQLVELLRAAEDYASGVRLPRNWMHLHFLRAIGIAMSMRAGVAADAAAALLFRILSQPALLFPPLSQVEGVEIQHAPIGGYSSNYRKQIEVPAAEATIEATAQGIASMLCAHGPEVEWRICTIWEAAYGLIPLNSSAVDLPEIIVATPLQPPILSWNLYIPLLKVLEYLPRGSPSEACLMKIFVATVETILSRTFPPESSRELTRKARSSFTTRSATKNLAMSELRAMVHALFLESCAGVELASRLLFVVLTVCVSHEAQSSGSKRPRSEYASTTENIEANQPVSNNQTANRKSRNVKGQGPVAAFDSYVLAAVCALACEVQLYPMISGGGNFSNSAVAGTITKPVKINGSSKEYGAGIDSAISHTRRILAILEALFSLKPSSVGTPWSYSSSEIVAAAMVAAHISELFRRSKALTHALSGLMRCKWDKEIHKRASSLYNLIDVHSKVVASIVDKAEPLEAYLKNTPVQKDSVTCLNWKQENTCASTTCFDTAVTSASRTEMNPRGNHKYARHSDEGSGRPSEKGIKDFLLDASDLANFLTADRLAGFYCGTQKLLRSVLAEKPELSFSVVSLLWHKLIAAPEIQPTAESTSAQQGWRQVVDALCNVVSATPAKAAAAVVLQAERELQPWIAKDDEEGQKMWKINQRIVKVLVELMRNHDRPESLVILASASDLLLRATDGMLVDGEACTLPQLELLEATARAIQPVLAWGPSGLAVVDGLSNLLKCRLPATIRCLSHPSAHVRALSTSVLRDIMNQSSIPIKVTPKLPTTEKNGMNSPSYRFFNAASIDWKADIQNCLNWEAHSLLSTTMPTQFLDTAARELGCTISLSQ
Take B1: the binding entry was “no binding” in assay [1] and “binds” in assay [2].
